{"source": "PubChem BioAssay AID588855", "about": "(National Center for Advancing Translational Sciences (NCATS), 2011)", "note": "About 5,000 (1.2%) of roughly 410,000 compounds were called active. The shares of active, inactive and inconclusive entries below differ from those in the screen. Calls follow the shape of the dose curve; as a rule, active = well fitted inhibition curve with a large enough effect; inconclusive = small, poorly fitted or top-dose-only effect; inactive = no such curve, though single readings can be large or run the other way. Potencies of inconclusive entries are doubtful fits and often do not repeat. % is scaled to controls: 0 for no effect and ±100 for the full control effect; potency is read from the fitted curve at half-maximal effect; tags tell the direction and shape of the fitted curve.", "data": [{"assay": "qHTS for Inhibitors of TGF-b; also: nearly all actives have a fitted effect of over 65% in size", "conditions": "HepG2 CAGA-GFP TGF-b/SMAD3 reporter, GFP fluorescence, 18 h, TGF-beta stimulated, 500 pg/mL final; series mostly up to 46.1 µM; activity, negative = inhibition: at the top concentration", "method_in_brief": "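Per well, imaged GFP fluorescence of HEPG2 CAGA-GFP cells gives the signal; cells get compound, then TGF-beta (500 pg/mL final), 18 h at 37 degrees C; %Activity versus -TGF-beta and +DMSO controls.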", "values": [{"molecule": "C=C1C(=O)O[C@@H]2C[C@@H](C)[C@@H]3C=CC(=O)[C@@]3(C)[C@@H](OC(=O)CC(=O)O[C@H]3[C@@H]4C(=C)C(=O)O[C@@H]4C[C@@H](C)[C@@H]4C=CC(=O)[C@]43C)[C@H]12", "Potency": "active: 0.251 µM"}, {"molecule": "CCOC(=O)CCCc1cc[c]([Sb](=[O])([OH])[OH])cc1", "Potency": "inconclusive: 0.1 µM [inhibitor, full curve]"}, {"molecule": "N#Cc1ccc(NC(=O)CCNC(=O)c2ccco2)cc1Cl", "activity, negative = inhibition": "inactive: -2.63%"}, {"molecule": "O=C(COc1ccc(Cl)cc1)N1CCN(Cc2ccc([N+](=O)[O-])cc2)CC1", "Potency": "inconclusive: 20 µM [inhibitor, single point]"}, {"molecule": "COC(=O)C1=C(c2cccc(OCc3ccccc3)c2)C[C@@H]2CC[C@H]1N2C(=O)NCCCOC(C)C", "Potency": "inconclusive: 35.5 µM [inhibitor, single point]"}, {"molecule": "C=CCNC(=S)Nc1ccc(OC(=O)Nc2ccc(Cl)c(Cl)c2)cc1", "Potency": "inconclusive: 28.2 µM [inhibitor, single point]"}, {"molecule": "COC(=O)C1=C(c2ccc(S(C)(=O)=O)cc2)C[C@@H]2CC[C@H]1N2C(=O)NCc1cccc2ccccc12", "activity, negative = inhibition": "inactive: 13.5%"}, {"molecule": "C=CCn1cc(C=C2C(=O)N(C)C(=O)N(C)C2=O)c2ccccc21", "Potency": "inconclusive: 3.55 µM [inhibitor, full curve]"}, {"molecule": "NC(N)=N/N=C/c1ccc(N(c2ccccc2)c2ccccc2)cc1", "Potency": "active: 12.6 µM"}, {"molecule": "COc1cc([N+](=O)[O-])c2nc(C)ccc2c1[N+](=O)[O-]", "Potency": "inconclusive: 35.5 µM [inhibitor, partial curve, poor fit]"}, {"molecule": "COC(=O)C1=C(c2ccc3ccccc3c2)C[C@@H]2CC[C@H]1N2C(=O)NCC1CC1", "activity, negative = inhibition": "inactive: -25.5%"}, {"molecule": "COC1=C[C@@H]2C3=C([C@@H]2C1=O)[C@@H](NC(C)=O)CCc1cc(OC)c(OC)c(OC)c13", "activity, negative = inhibition": "inactive: 2.17%"}, {"molecule": "COC(=O)C1=C(c2cccc(OCc3ccccc3)c2)C[C@@H]2CC[C@H]1N2C(=O)NCc1ccc(F)cc1", "Potency": "inconclusive: 22.4 µM [inhibitor, single point]"}, {"molecule": "C[N+](C)(C)CC1CCCC(C[N+](C)(C)C)C1=O", "note": "(stereo not given)", "Potency": "active: 12.6 µM"}, {"molecule": "Cn1c(CN2CCN(C(=O)COc3ccccc3)CC2)nc2cc([N+](=O)[O-])ccc21", "Potency": "inconclusive: 35.5 µM [inhibitor, partial curve, poor fit]"}, {"molecule": "CCCCn1nnnc1C(c1cccc(OC)c1OC)N1CCC2(CC1)C(=O)NCN2c1ccccc1", "note": "(stereo not given)", "Potency": "inconclusive: 15.8 µM [inhibitor, single point]"}, {"molecule": "COc1cccc(NC(=O)C2CCN(c3nnc(C)c4c(C)n(-c5ccccc5)nc34)CC2)c1", "Potency": "inconclusive: 1.58 µM [inhibitor, full curve, poor fit]"}, {"molecule": "CC(=O)OC12COC1CC(O)C1(C)C(=O)C(O)C3=C(C)C(O)CC(O)(C(OC(=O)c4ccccc4)C21)C3(C)C", "note": "(stereo not given)", "Potency": "inconclusive: 2.82 µM [inhibitor, partial curve, poor fit]"}, {"molecule": "O=C1NC(=S)NC(=O)C1Cc1ccccc1", "activity, negative = inhibition": "inactive: -9.81%"}, {"molecule": "COc1ccc2[nH]c(C)c(CCNCc3cn(C)c4ccccc34)c2c1", "Potency": "inconclusive: 35.5 µM [inhibitor, single point]"}, {"molecule": "C#CCOCCOCCOCCNc1nc(N2CCN(C(=O)CCCCCCCCCCNC(=O)[C@H]([C@@H](C)CC)n3cc(CCCCN=C(N)N)nn3)CC2)nc(N2CCN(C(=O)CCCCCCCCCCNC(=O)[C@H](CO)n3cc(CCCCCN)nn3)CC2)n1", "Potency": "inconclusive: 35.5 µM [inhibitor, single point]"}, {"molecule": "O=c1[nH]c2ccccc2n1C1CCN(C(c2ccnc3ccccc23)c2nnnn2Cc2ccccc2)CC1", "note": "(stereo not given)", "Potency": "inconclusive: 11.2 µM [inhibitor, partial curve]"}, {"molecule": "Cc1nc2c(=O)n(C)c(=O)nc-2n(C)n1", "Potency": "active: 0.631 µM"}, {"molecule": "CCCN1CCc2cc(O)cc3c2[C@H]1Cc1ccc(O)c(O)c1-3", "Potency": "inconclusive: 22.4 µM [inhibitor, single point]"}, {"molecule": "CC(=O)OC1CC(OC2C(O)CC(OC3C(O)CC(OC4CCC5(C)C(CCC6C5CC(O)C5(C)C(C7=CC(=O)OC7)CCC65O)C4)OC3C)OC2C)OC(C)C1OC1OC(CO)C(O)C(O)C1O", "note": "(stereo not given)", "Potency": "active: 1.41 µM"}, {"molecule": "Cc1nc2nc(C)c(CCC(=O)N3CCC4(CC3)OCCO4)c(C)n2n1", "Potency": "inconclusive: 35.5 µM [inhibitor, single point]"}, {"molecule": "Cc1ccccc1-c1nn2c(=O)cc(CN3CCN(C(=O)COc4ccccc4Cl)CC3)nc2s1", "Potency": "inconclusive: 8.91 µM [inhibitor, partial curve, poor fit]"}, {"molecule": "Cc1nn(C(C)(C)C)c(C)c1/C=N/OC(=O)Nc1ccc(Cl)cc1", "Potency": "inconclusive: 35.5 µM [inhibitor, single point]"}, {"molecule": "O=C(c1cc(C(=O)NCc2ccccc2)c(=O)n(Cc2ccccc2)c1)c1cc(Br)ccc1O", "Potency": "inconclusive: 12.6 µM [inhibitor, partial curve, poor fit]"}, {"molecule": "COC1=C(C)C(=O)C2=C(C1=O)C(CO)N1C(C#N)C3CC4C(C1C2N1CCOC41)N3C", "note": "(stereo not given)", "Potency": "active: 7.08 µM"}, {"molecule": "COc1ccc(OC)c(N2C(=O)NC(=O)C3(Cc4cc(C)ccc4N(C)C3)C2=O)c1", "note": "(stereo not given)", "activity, negative = inhibition": "inactive: 7.78%"}, {"molecule": "O=C1NC(=S)NC(=O)C1=Cc1cccn1-c1ccc(O)cc1", "Potency": "inconclusive: 28.2 µM [inhibitor, single point]"}, {"molecule": "COCC(=O)Nc1nnc(SCC(=O)NCc2cccs2)s1", "Potency": "inconclusive: 2.24 µM [inhibitor, full curve]"}, {"molecule": "COc1ccc(S(=O)(=O)N(C)C[C@H]2Oc3c(NC(=O)NC4CCCCC4)cccc3C(=O)N([C@H](C)CO)C[C@@H]2C)cc1", "Potency": "inconclusive: 15.8 µM [inhibitor, single point]"}, {"molecule": "COc1ccc2c(c1)/C(=C/c1cnc[nH]1)C(=O)N2", "Potency": "inconclusive: 22.4 µM [inhibitor, single point]"}, {"molecule": "CC(=O)c1cn(Cc2ccc(F)cc2)c2ccccc12", "Potency": "inconclusive: 10 µM [inhibitor, partial curve]"}, {"molecule": "O=c1[nH]c2ccccc2n1C1CCN(C(c2nnnn2Cc2ccccc2)C2CC2)CC1", "note": "(stereo not given)", "activity, negative = inhibition": "inactive: -40.2%"}, {"molecule": "Cc1cc(N2CCOCC2)nc2ccc(NC(=O)CCC(=O)N3CCC4(CC3)OCCO4)cc12", "activity, negative = inhibition": "inactive: -20.5%"}, {"molecule": "COc1ccc(C2/C=C\\CN(C(=O)Oc3ccccc3)CC(=O)N2Cc2ccc(F)cc2)cc1", "note": "(stereo not given)", "Potency": "inconclusive: 20 µM [inhibitor, single point]"}, {"molecule": "CC1(C)C(=O)CC[C@]2(C)C3C(=O)C=C4[C@H]5C[C@@](C)(C(=O)O)CC[C@]5(C)CC[C@]4(C)[C@]3(C)CC[C@@H]12", "note": "(stereo not given in full)", "Potency": "inconclusive: 35.5 µM [inhibitor, single point]"}, {"molecule": "COc1ccc(C[C@H]2NC[C@H](O)[C@H]2OC(C)=O)cc1", "Potency": "active: 0.224 µM"}, {"molecule": "COc1ccc(Cl)cc1C(=O)C1CCCN(Cc2cnc(C)s2)C1", "note": "(stereo not given)", "activity, negative = inhibition": "inactive: 0%"}, {"molecule": "Cc1ccc2nc(NC(=O)c3cccn(Cc4ccccc4F)c3=O)sc2c1", "Potency": "inconclusive: 6.31 µM [inhibitor, single point]"}, {"molecule": "Cc1ccc2c(=O)n(-c3cccc(Cl)c3)c(=O)[nH]c2c1", "Potency": "inconclusive: 12.6 µM [inhibitor, partial curve, poor fit]"}, {"molecule": "COc1ccc(-n2nnnc2C(c2ccccc2OC(F)(F)F)N2CCC3(CC2)C(=O)NCN3c2ccccc2)cc1", "note": "(stereo not given)", "Potency": "active: 11.2 µM"}, {"molecule": "Cc1cc(C(=O)Cn2nnc(-c3ccc(Cl)cc3)n2)c(C)n1-c1ccccc1", "Potency": "inconclusive: 35.5 µM [inhibitor, single point]"}, {"molecule": "O=C(Nc1ccc(OC(F)(F)F)cc1)C1CCN(S(=O)(=O)c2cccs2)CC1", "Potency": "inconclusive: 22.4 µM [inhibitor, single point]"}, {"molecule": "CCOc1ccc(N(C(C)C(=O)Nc2cc(Cl)ccc2OC)S(C)(=O)=O)cc1", "note": "(stereo not given)", "Potency": "inconclusive: 12.6 µM [inhibitor, partial curve, poor fit]"}, {"molecule": "Cc1ccc(NC(=S)NC2CC3CCC(C2)N3Cc2ccco2)cc1C", "note": "(stereo not given)", "Potency": "inconclusive: 14.1 µM [inhibitor, single point]"}, {"molecule": "CSc1cccc(NC(=O)C2CCN(C(=O)c3cnn(-c4ccccc4)c3-n3cccc3)CC2)c1", "Potency": "inconclusive: 14.1 µM [inhibitor, single point]"}, {"molecule": "Nc1c(C(=O)NCc2ccco2)c2nc3ccccc3nc2n1Cc1ccc(F)cc1", "Potency": "inconclusive: 20 µM [inhibitor, single point]"}, {"molecule": "COc1ccc2nc(NC(=O)c3nc(S(=O)(=O)Cc4cccc(C)c4)ncc3Cl)sc2c1", "Potency": "inconclusive: 12.6 µM [inhibitor, partial curve, poor fit]"}, {"molecule": "CCCCn1nnnc1C(CC)N1CCC2(CC1)C(=O)NCN2c1ccccc1", "note": "(stereo not given)", "Potency": "inconclusive: 22.4 µM [inhibitor, partial curve]"}, {"molecule": "Oc1c(Cl)c(Cl)c(Cl)c(Cl)c1Cl", "Potency": "inconclusive: 35.5 µM [inhibitor, single point]"}, {"molecule": "CCCCn1c(N)c(C(=O)NCc2cccs2)c2nc3ccccc3nc21", "Potency": "active: 10 µM"}, {"molecule": "COc1ccc(OC)c(N2C(=O)NC(=O)/C(=C\\c3ccc([N+](=O)[O-])s3)C2=O)c1", "Potency": "inconclusive: 35.5 µM [inhibitor, single point]"}, {"molecule": "CC(=O)OC1N=C(c2ccccc2Cl)c2cc(Br)ccc2NC1=O", "note": "(stereo not given)", "activity, negative = inhibition": "inactive: 10.7%"}, {"molecule": "CCN1CCC2(CC1)NC(CO)(CO)CO2", "Potency": "inconclusive: 0.562 µM [inhibitor, full curve, poor fit]"}, {"molecule": "COc1ccc(CCNCc2ccc(OC)c(OC)c2OC)cc1", "Potency": "inconclusive: 35.5 µM [inhibitor, partial curve, poor fit]"}, {"molecule": "Cc1ccc(NC(=O)Nc2ccc3nc(N4CCN(C)CC4)cc(C)c3c2)cc1F", "activity, negative = inhibition": "inactive: 25.5%"}]}]}
